# Some of the results follow. Values were computed here from the reads of four pooled replicates and scatter widely.
# Target: T1, Pho4 (S. cerevisiae) (UniProt P07270)
# T1 sequence: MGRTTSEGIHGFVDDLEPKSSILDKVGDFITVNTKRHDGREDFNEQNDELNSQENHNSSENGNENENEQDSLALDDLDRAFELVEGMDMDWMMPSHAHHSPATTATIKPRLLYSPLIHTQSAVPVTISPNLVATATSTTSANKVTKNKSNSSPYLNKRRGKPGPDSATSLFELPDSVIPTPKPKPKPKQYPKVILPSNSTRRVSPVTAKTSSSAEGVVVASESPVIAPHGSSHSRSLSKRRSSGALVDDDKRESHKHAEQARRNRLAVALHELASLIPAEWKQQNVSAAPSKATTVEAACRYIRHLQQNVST
# Assay: relative binding free energy (BET-seq); higher = weaker binding
# Conditions: reference: library average
row,Sequence,relative binding free energy [kcal/mol]
1,TAAGACACGTGTGATG,0.08
2,AACTGCACGTGGGGCG,-0.01
3,TGGGGCACGTGTGTTT,-0.07
4,TTGCACACGTGTATTA,0.07
5,TTGTGCACGTGGAGTT,0.11
6,AATTTCACGTGGGGCT,0.1
7,TTAGTCACGTGAATCG,0.29
8,TGGGGCACGTGTGTTG,-0.07
9,GTGGTCACGTGTTAGG,0.28
10,GGGATCACGTGGTGTT,0.14
11,GGTTTCACGTGCCTGT,0.24
12,CATGTCACGTGTTTCA,0.33
13,GTATGCACGTGGTAAT,-0.08
14,AGTTGCACGTGGTATA,-0.03
15,TGTTACACGTGAGGCA,0.19
16,CAGGTCACGTGTTGCT,0.17
17,CGGGACACGTGGCTGG,-0.02
18,GTGTACACGTGATTCG,0.28
19,TGCCGCACGTGTAGGT,-0.09
20,GTTCTCACGTGATTTA,0.3
21,GAGGTCACGTGATTCG,0.38
22,TAAGACACGTGGTGGC,-0.08
23,TATTTCACGTGGTATA,0.29

row,Sequence,relative binding free energy [kcal/mol]
1,ATGATCACGTGCAGTT,0.14
2,TTCTTCACGTGTATGG,0.35
3,TACGGCACGTGGGAGC,-0.16
4,GTGTGCACGTGGAAGT,0.19
5,CTTTACACGTGAGTTA,0.42
6,CTGGCCACGTGTGAGT,0.08
7,GGAAACACGTGAGTTA,0.35
8,TGAGTCACGTGCGAAT,0.14
9,AGGTACACGTGGCCGT,0.03
10,ACATGCACGTGTTTAG,-0.03
11,GTAATCACGTGAGTGG,0.28
12,CATTACACGTGGTGGG,0
13,TTGTGCACGTGGCAGG,-0.14
14,GGTGGCACGTGATGCT,0.03
15,TGTGGCACGTGAGGCC,0.11
16,TTGTTCACGTGAACAT,0.25
17,ATGGTCACGTGGGTAA,-0.03
18,GGCGACACGTGTTTGG,0.11
19,CAGATCACGTGCAGGG,0.38
20,AAGCGCACGTGGGAGA,-0.03
21,GGGGTCACGTGTATGT,0.26
22,ATTTTCACGTGTCAGC,0.42
23,TCTTGCACGTGAGTTC,0.32

row,Sequence,relative binding free energy [kcal/mol]
1,GTGCACACGTGAGGTT,0.14
2,ACAGGCACGTGTTCGG,-0.09
3,ATGAGCACGTGCGCGG,-0.19
4,GAGCTCACGTGAGGGT,0.41
5,TAGGTCACGTGGGTAT,-0.03
6,TATAACACGTGTGAGT,0.01
7,TTTTGCACGTGTAGAG,0.17
8,TTCTGCACGTGGTTGC,-0.03
9,TGCGACACGTGAGAGT,0.44
10,AGAAGCACGTGGTGAT,-0.15
11,GGGTGCACGTGTACTT,0.08
12,TGTCTCACGTGATTTA,0.25
13,TTTTTCACGTGCACGT,0.16
14,TGAATCACGTGGAAAG,0.32
15,GAGTACACGTGGGAGG,-0.01
16,GTATACACGTGTTGCT,-0.05
17,TGTGACACGTGCGTGG,-0.07
18,TCGGACACGTGTTGGT,-0.05
19,GAGCTCACGTGGATGG,0.29
20,TGGCCCACGTGTTGTT,0.04
21,GGTAGCACGTGGATAG,0.01
22,AGCGCCACGTGGGTGT,-0.29
23,TAAGTCACGTGGGGTC,-0.05

row,Sequence,relative binding free energy [kcal/mol]
1,TCTGACACGTGGGGGT,-0.06
2,GTCGGCACGTGTGGTC,0.04
3,AGTTTCACGTGTGCAA,0.32
4,GGGGACACGTGTGATT,0.11
5,ATGGACACGTGCGCGT,-0.05
6,GATTGCACGTGGAATG,0.12
7,CCTGGCACGTGAGTTT,0.18
8,TTTAACACGTGACGTT,0.25
9,ATTTGCACGTGTAATG,0.06
10,GTTTTCACGTGCAATG,0.34
11,GGGTTCACGTGCGGTA,0.18
12,GGTGTCACGTGGAGCG,-0.02
13,TTTTTCACGTGGAAGC,0.29
14,TAATCCACGTGTGGGT,0.05
15,GTTGCCACGTGCTTTG,-0.09
16,TTCAACACGTGGTCGG,-0.02
17,TTAGACACGTGAGATG,0.19
18,AGTGCCACGTGGGTGG,-0.24
19,TGCTGCACGTGCGGGC,-0.09
20,TAGTACACGTGGGGTA,-0.08
21,AGAGTCACGTGTTTAT,0.23
22,TGGGACACGTGGGGTA,-0.2
23,GGTTGCACGTGTGGTA,0.12

row,Sequence,relative binding free energy [kcal/mol]
1,AATAGCACGTGGCTGG,-0.12
2,AGATTCACGTGTGACG,0.27
3,GATCTCACGTGAGTGT,0.44
4,CGTTGCACGTGAGCTG,0.1
5,TCGTACACGTGAGGTT,0.28
6,GAGAACACGTGGGGTA,-0.06
7,GAATTCACGTGGGAGG,0.27
8,TGGCGCACGTGAGGTT,0.23
9,ATTGACACGTGCTTTT,-0.15
10,TTGGGCACGTGGCTCG,-0.11
11,CTTTTCACGTGCGGGT,0.22
12,GTCTTCACGTGGTGCA,0.29
13,TGTGGCACGTGAAACG,-0.02
14,TGATACACGTGTATGT,-0.04
15,GTTCTCACGTGGTTGC,0.17
16,ATTAGCACGTGGATGC,0
17,ATTCGCACGTGTGGCG,0.04
18,TAGCGCACGTGGGTGT,-0.26
19,TGAGGCACGTGCAATG,-0.08
20,CGGGCCACGTGTGGTT,0.12
21,TGGTTCACGTGGCGAT,0.27
22,GCATGCACGTGTTTTA,0.01
23,CTTTACACGTGAGGCT,0.31
